Measured values from publication PMC4335047, “Interaction between the tRNA-Binding and C-Terminal Domains of Yeast Gcn2 Regulates Kinase Activity In Vivo” (PLoS Genetics, 2015).
Where a chain is given by its changes, count along the chain named. No constants are given. Whether binding was seen depends on the method and setting. Some binding calls cover weakened binding; strength is not graded here. Sequences can lack the tags named with a protein.

Legend:
[1] = biological target: T1, lexA-HisRS (Gcn2 residues 970–1497) D1327A (S. cerevisiae) (UniProt P15442); assay: condition: only cells starved for isoleucine/valine with sulfometuron methyl (0.5 μg/mL); two-hybrid; as a1, but cells starved for isoleucine/valine with sulfometuron methyl (0.5 μg/mL)
T1 sequence: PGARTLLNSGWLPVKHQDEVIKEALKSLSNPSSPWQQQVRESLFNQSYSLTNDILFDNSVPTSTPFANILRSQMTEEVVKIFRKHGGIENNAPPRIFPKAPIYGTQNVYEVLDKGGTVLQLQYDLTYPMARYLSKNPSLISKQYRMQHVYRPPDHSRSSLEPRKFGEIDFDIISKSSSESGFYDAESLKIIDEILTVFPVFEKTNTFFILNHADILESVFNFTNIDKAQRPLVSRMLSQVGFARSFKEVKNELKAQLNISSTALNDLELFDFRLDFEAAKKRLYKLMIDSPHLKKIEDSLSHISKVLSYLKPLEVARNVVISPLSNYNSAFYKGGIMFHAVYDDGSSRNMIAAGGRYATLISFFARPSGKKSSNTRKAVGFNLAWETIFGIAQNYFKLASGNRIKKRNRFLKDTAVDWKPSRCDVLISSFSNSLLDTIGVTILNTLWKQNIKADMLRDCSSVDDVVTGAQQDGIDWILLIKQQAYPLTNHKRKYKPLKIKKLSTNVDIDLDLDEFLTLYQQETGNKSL

[2] = biological target: T2, lexA-HisRS (Gcn2 residues 970–1497) D1327K (S. cerevisiae) (UniProt P15442); assay: as above
T2 sequence: T1 sequence with A358K

[3] = biological target: T1, lexA-HisRS (Gcn2 residues 970–1497) D1327A (S. cerevisiae); assay: two-hybrid; lexA-HisRS and B42-CTD fusions in yeast with lexAop-lacZ reporter; β-galactosidase activity in cell extracts of three or more transformants; galactose/raffinose medium, nonstarvation conditions
[4] = biological target: T2, lexA-HisRS (Gcn2 residues 970–1497) D1327K (S. cerevisiae); assay: as above
[5] = biological target: T3, lexA-HisRS (Gcn2 residues 970–1497) Y1092C/T1328S/A1353V (S. cerevisiae) (UniProt P15442); assay: as above
T3 sequence: T1 sequence with Y123C, A358D, T359S, A384V

[6] = biological target: T4, lexA-HisRS (Gcn2 residues 970–1497) Y1092C/T1328S/A1353V/D1327K (S. cerevisiae) (UniProt P15442); assay: as above
T4 sequence: T1 sequence with Y123C, A358K, T359S, A384V

[7] = biological target: T5, lexA-HisRS (Gcn2 residues 970–1497), wild type (S. cerevisiae) (UniProt P15442); assay: as above
T5 sequence: T1 sequence with A358D

B1: B42-CTD (fusion of the B42 activation domain to the Gcn2 CTD) (domain or fragment, UniProt P15442 1498-1659)
chain: INDSLTLGDKADEFKRWDENSSAGSSQEGDIDDVVAGSTNNQKVIYVPNMATRSKKANKREKWVYEDAARNSSNMILHNLSNAPIITVDALRDETLEIISITSLAQKEEWLRKVFGSGNNSTPRSFATSIYNNLSKEAHKGNRWAILYCHKTGKSSVIDLQR
binding [1]: no binding
binding [2]: no binding
binding [3]: binds
binding [4]: binds
binding [5]: binds weakly
binding [6]: binds
binding [7]: binds weakly
